Further values from the same series stand in other lists.
Assay: xn = mol fraction of the nth substance listed
Settings: 101 kPa

OCC(O)CO + O
viscosity [mPa·s]
Settings	293.15 K	295.65 K
x1 = 0.00777	1.109	–
x1 = 0.0152	1.216	–
x1 = 0.021	1.31	–
x1 = 0.02262	1.331	–
x1 = 0.03118	1.478	–
x1 = 0.03958	1.634	–
x1 = 0.04604	1.756	–
x1 = 0.047	1.76	–
x1 = 0.05683	1.995	–
x1 = 0.07063	2.323	–
x1 = 0.077	2.5	–
x1 = 0.07885	2.545	–
x1 = 0.08828	2.822	–
x1 = 0.1003	3.207	–
x1 = 0.1112	3.595	–
x1 = 0.12	3.72	–
x1 = 0.1223	4.029	–
x1 = 0.1369	4.668	–
x1 = 0.154	5.618	–
x1 = 0.16	6	–
x1 = 0.171	6.516	–
x1 = 0.1874	7.6	–
x1 = 0.1967	8.282	7.494
x1 = 0.2067	9.092	8.209
x1 = 0.2178	10.07	9.074
x1 = 0.225	10.79	9.679
x1 = 0.23	10.8	–
x1 = 0.2378	12.06	10.79
x1 = 0.2459	–	11.64
x1 = 0.2622	14.99	13.35
x1 = 0.2636	15.13	13.46
x1 = 0.27	15.2	–
x1 = 0.28	17.7	–
x1 = 0.2837	17.89	–
x1 = 0.31	22.5	–
x1 = 0.3153	23.35	–
x1 = 0.3391	28.57	–
x1 = 0.365	35.11	–
x1 = 0.37	35.5	–
x1 = 0.3785	38.98	–
x1 = 0.4055	47.97	–
x1 = 0.4294	57.79	–
x1 = 0.44	60.1	–
x1 = 0.452	70.28	–
x1 = 0.485	85.73	–
x1 = 0.5117	103.2	–
x1 = 0.53	109	–
x1 = 0.5472	131.1	–
x1 = 0.5575	140.4	–
x1 = 0.5867	172.2	–
x1 = 0.6349	231.6	–
x1 = 0.64	219	–
x1 = 0.659	268	–
x1 = 0.66	259	–
x1 = 0.69	310	–
x1 = 0.6978	337.9	–
x1 = 0.7166	375.6	–
x1 = 0.72	367	–
x1 = 0.7442	442.3	–
x1 = 0.75	437	–
x1 = 0.7646	481.7	–
x1 = 0.79	523	–
x1 = 0.7947	565.6	–
x1 = 0.8114	618.5	–
x1 = 0.82	624	–
x1 = 0.8274	671.6	–
x1 = 0.8428	724	–
x1 = 0.859	783.5	–
x1 = 0.86	765	–
x1 = 0.9082	986	–
x1 = 0.91	939	–
x1 = 0.9434	1158	–
x1 = 0.95	1150	–
x2 = 0.0171	1385	–

— the CheMixHub viscosity set
